{"source": "the supplement of paper PMC10126150", "note": "Sequences with one replicate were seen in a single cluster, so their values are uncertain.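 Further: ATP exposure 15 min at 22 °C before imaging.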"}
{"test_system": "ATP", "test": "switch fluorescence ratio, 500 uM ATP over buffer (Cy3 cluster intensity, sum of 5 cycles each) (fold (ratio)); higher = stronger signal-on switching upon ATP binding; sequences stand for … in TCGTCGGCAGCGTCAGATGTGTATAAGAGACAGTTTTTTTTTTTTTTTTTTTTTTTTT…TC", "details": "aptamer strand: ATP DNA aptamer (quencher-CACCTGGGGGAGTATTGCGGAGGAAGG + anchor), 100 nM annealed; ATP concentration: 500 uM; one replicate", "how_it_was_run": "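For every switch-domain sequence, the fluorescence ratio is the mean of per-cluster values, each being summed target-cycle Cy3 intensity over summed buffer-cycle Cy3 intensity. Clusters outside 100-1000 RFU were excluded. On a modified Illumina MiSeq flow-cell, the Cy3-labelled switching-strand clusters were annealed to 100 nM quencher-labelled ATP aptamer, imaged in selection buffer and then after 15 min with 500 uM ATP at 22 °C. Five such cycles were run, with NaOH stripping and re-annealing between them.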"}
{"sequence": "GTGGCTCATA", "switch fluorescence ratio": 0.998}
{"sequence": "GTGGCTCCGC", "switch fluorescence ratio": 1.5}
{"sequence": "GTGGGAGCTT", "switch fluorescence ratio": 0.973}
{"sequence": "GTGGGATGTC", "switch fluorescence ratio": 0.969}
{"sequence": "GTGGGCACTG", "switch fluorescence ratio": 0.959}
{"sequence": "GTGGGGCAGG", "switch fluorescence ratio": 1.08}
{"sequence": "GTGGGGGAAC", "switch fluorescence ratio": 1.02}
{"sequence": "GTGGGTGGAA", "switch fluorescence ratio": 1}
{"sequence": "GTGGGTGGTT", "switch fluorescence ratio": 0.997}
{"sequence": "GTGGGTTATA", "switch fluorescence ratio": 0.949}
{"sequence": "GTGGTAAGTG", "switch fluorescence ratio": 0.93}
{"sequence": "GTGGTAGCGC", "switch fluorescence ratio": 1.07}
{"sequence": "GTGGTCCTAA", "switch fluorescence ratio": 0.971}
{"sequence": "GTGGTCGTAT", "switch fluorescence ratio": 0.997}
{"sequence": "GTGGTCTAGA", "switch fluorescence ratio": 1.01}
{"sequence": "GTGGTGTTAT", "switch fluorescence ratio": 0.933}
{"sequence": "GTGGTTCTCC", "switch fluorescence ratio": 1.2}
{"sequence": "GTGGTTTTGC", "switch fluorescence ratio": 0.963}
{"sequence": "GTGTACCGTG", "switch fluorescence ratio": 0.98}
{"sequence": "GTGTACCTTG", "switch fluorescence ratio": 1}
{"sequence": "GTGTATATTT", "switch fluorescence ratio": 0.943}
{"sequence": "GTGTATCCGG", "switch fluorescence ratio": 1.01}
{"sequence": "GTGTATGTAG", "switch fluorescence ratio": 0.996}
{"sequence": "GTGTCCCGTC", "switch fluorescence ratio": 0.999}
{"sequence": "GTGTCCGTCG", "switch fluorescence ratio": 1.01}
{"sequence": "GTGTCGGTTG", "switch fluorescence ratio": 1.04}
{"sequence": "GTGTCTAGGT", "switch fluorescence ratio": 1}
{"sequence": "GTGTCTTGTT", "switch fluorescence ratio": 0.983}
{"sequence": "GTGTGAAGAT", "switch fluorescence ratio": 1.04}
{"sequence": "GTGTGAAGGA", "switch fluorescence ratio": 1}
{"sequence": "GTGTGCAAGA", "switch fluorescence ratio": 0.991}
{"sequence": "GTGTGCACGG", "switch fluorescence ratio": 0.95}
{"sequence": "GTGTGGATGG", "switch fluorescence ratio": 1.02}
{"sequence": "GTGTGGCTTT", "switch fluorescence ratio": 1.01}
{"sequence": "GTGTGGGACT", "switch fluorescence ratio": 0.969}
{"sequence": "GTGTGTCGG", "switch fluorescence ratio": 1.03}
{"sequence": "GTGTTAACCC", "switch fluorescence ratio": 0.991}
{"sequence": "GTGTTCATGT", "switch fluorescence ratio": 0.974}
{"sequence": "GTGTTCGTCC", "switch fluorescence ratio": 0.999}
{"sequence": "GTGTTGAGGG", "switch fluorescence ratio": 0.991}
{"sequence": "GTGTTTCCCG", "switch fluorescence ratio": 1.01}
{"sequence": "GTTAACCATC", "switch fluorescence ratio": 0.956}
{"sequence": "GTTAACGGTA", "switch fluorescence ratio": 1.04}
{"sequence": "GTTAAGCACC", "switch fluorescence ratio": 1.23}
{"sequence": "GTTAATCATA", "switch fluorescence ratio": 0.979}
{"sequence": "GTTAATCCAC", "switch fluorescence ratio": 1.03}
{"sequence": "GTTACATATG", "switch fluorescence ratio": 0.991}
{"sequence": "GTTACCAGCT", "switch fluorescence ratio": 0.99}
{"sequence": "GTTACCAGTG", "switch fluorescence ratio": 1.1}
{"sequence": "GTTACCCTAG", "switch fluorescence ratio": 1.04}
{"sequence": "GTTACGCGAC", "switch fluorescence ratio": 1.07}
{"sequence": "GTTACTGCGC", "switch fluorescence ratio": 1.31}
{"sequence": "GTTACTGT", "switch fluorescence ratio": 1.04}
{"sequence": "GTTACTTTGG", "switch fluorescence ratio": 0.984}
{"sequence": "GTTAGAATCC", "switch fluorescence ratio": 1.02}
{"sequence": "GTTAGACGAG", "switch fluorescence ratio": 1.01}
{"sequence": "GTTAGATATC", "switch fluorescence ratio": 0.968}
{"sequence": "GTTAGCAAAA", "switch fluorescence ratio": 0.968}
{"sequence": "GTTAGCCAAT", "switch fluorescence ratio": 0.986}
{"sequence": "GTTAGCCCTA", "switch fluorescence ratio": 0.977}
{"sequence": "GTTAGGCGGA", "switch fluorescence ratio": 0.995}
{"sequence": "GTTAGGGTCG", "switch fluorescence ratio": 1.1}
{"sequence": "GTTAGTCTCG", "switch fluorescence ratio": 1.06}
{"sequence": "GTTAGTTAT", "switch fluorescence ratio": 1.07}
{"sequence": "GTTAGTTGTG", "switch fluorescence ratio": 0.992}
{"sequence": "GTTATATGTC", "switch fluorescence ratio": 1.01}
{"sequence": "GTTATCAATT", "switch fluorescence ratio": 1.06}
{"sequence": "GTTATCACG", "switch fluorescence ratio": 0.958}
{"sequence": "GTTATCGATC", "switch fluorescence ratio": 1}
{"sequence": "GTTATGACTA", "switch fluorescence ratio": 0.962}
{"sequence": "GTTATGCAT", "switch fluorescence ratio": 1.03}
{"sequence": "GTTATTACTA", "switch fluorescence ratio": 1}
{"sequence": "GTTATTAT", "switch fluorescence ratio": 0.974}
{"sequence": "GTTATTCTGA", "switch fluorescence ratio": 0.95}
{"sequence": "GTTATTTATG", "switch fluorescence ratio": 0.963}
{"sequence": "GTTATTTGA", "switch fluorescence ratio": 0.998}
{"sequence": "GTTCAACAGG", "switch fluorescence ratio": 1.12}
{"sequence": "GTTCAATTAT", "switch fluorescence ratio": 0.985}
{"sequence": "GTTCAGCGCT", "switch fluorescence ratio": 1.03}
{"sequence": "GTTCAGTGTT", "switch fluorescence ratio": 1.04}
{"sequence": "GTTCAGTTAG", "switch fluorescence ratio": 0.96}
{"sequence": "GTTCATCTAG", "switch fluorescence ratio": 0.95}
{"sequence": "GTTCCCGTTA", "switch fluorescence ratio": 1.01}
{"sequence": "GTTCCGTATA", "switch fluorescence ratio": 1.28}
{"sequence": "GTTCCGTCCG", "switch fluorescence ratio": 1.05}
{"sequence": "GTTCCTCGCC", "switch fluorescence ratio": 3.09}
{"sequence": "GTTCCTTCGT", "switch fluorescence ratio": 1.64}
{"sequence": "GTTCGACCGA", "switch fluorescence ratio": 1.03}
{"sequence": "GTTCGCCCGT", "switch fluorescence ratio": 1.03}
{"sequence": "GTTCGCTATG", "switch fluorescence ratio": 1.05}
{"sequence": "GTTCGGTAAT", "switch fluorescence ratio": 1.04}
{"sequence": "GTTCGGTCGG", "switch fluorescence ratio": 1}
{"sequence": "GTTCGGTTTT", "switch fluorescence ratio": 0.959}
{"sequence": "GTTCGTAGTC", "switch fluorescence ratio": 0.945}
{"sequence": "GTTCGTTACG", "switch fluorescence ratio": 1.02}
{"sequence": "GTTCGTTTCA", "switch fluorescence ratio": 0.967}
{"sequence": "GTTCTAGGAA", "switch fluorescence ratio": 1.01}
{"sequence": "GTTCTAGTGG", "switch fluorescence ratio": 1.02}
{"sequence": "GTTCTCAAGG", "switch fluorescence ratio": 0.978}
{"sequence": "GTTCTCGAAT", "switch fluorescence ratio": 1.04}
{"sequence": "GTTCTCTGAG", "switch fluorescence ratio": 1.01}
{"sequence": "GTTCTGCTGC", "switch fluorescence ratio": 1.03}
{"sequence": "GTTCTGGTGA", "switch fluorescence ratio": 0.999}
{"sequence": "GTTCTGTGTC", "switch fluorescence ratio": 0.858}
{"sequence": "GTTCTTCTTC", "switch fluorescence ratio": 0.95}
{"sequence": "GTTCTTGGCA", "switch fluorescence ratio": 0.995}
{"sequence": "GTTCTTGTTT", "switch fluorescence ratio": 0.968}
{"sequence": "GTTCTTTAAA", "switch fluorescence ratio": 0.982}
{"sequence": "GTTCTTTG", "switch fluorescence ratio": 0.974}
{"sequence": "GTTGAAAGG", "switch fluorescence ratio": 0.991}
{"sequence": "GTTGAACGTA", "switch fluorescence ratio": 1.04}
{"sequence": "GTTGAAGCAT", "switch fluorescence ratio": 1}
{"sequence": "GTTGAATTC", "switch fluorescence ratio": 0.985}
{"sequence": "GTTGAGAATG", "switch fluorescence ratio": 0.964}
{"sequence": "GTTGAGACGG", "switch fluorescence ratio": 0.955}
{"sequence": "GTTGAGGTAC", "switch fluorescence ratio": 0.913}
{"sequence": "GTTGATTGAT", "switch fluorescence ratio": 0.981}
{"sequence": "GTTGCAACTG", "switch fluorescence ratio": 1.02}
{"sequence": "GTTGCAATCA", "switch fluorescence ratio": 1.03}
{"sequence": "GTTGCAATGT", "switch fluorescence ratio": 1.19}
{"sequence": "GTTGCAGGGC", "switch fluorescence ratio": 1.06}
{"sequence": "GTTGCGCCT", "switch fluorescence ratio": 1.03}
{"sequence": "GTTGCGGGG", "switch fluorescence ratio": 0.991}
{"sequence": "GTTGCTACGT", "switch fluorescence ratio": 1}
{"sequence": "GTTGCTGTAT", "switch fluorescence ratio": 1.03}
{"sequence": "GTTGGACAAA", "switch fluorescence ratio": 0.985}
{"sequence": "GTTGGAGAGC", "switch fluorescence ratio": 0.964}
{"sequence": "GTTGGAGCAA", "switch fluorescence ratio": 1.77}
{"sequence": "GTTGGCCCAA", "switch fluorescence ratio": 1.04}
{"sequence": "GTTGGGAGAC", "switch fluorescence ratio": 0.987}
{"sequence": "GTTGGGCTCC", "switch fluorescence ratio": 0.942}
{"sequence": "GTTGGGGACC", "switch fluorescence ratio": 1.01}
{"sequence": "GTTGGTAACA", "switch fluorescence ratio": 0.947}
{"sequence": "GTTGGTATCC", "switch fluorescence ratio": 1.04}
{"sequence": "GTTGGTGGTA", "switch fluorescence ratio": 0.983}
{"sequence": "GTTGGTGTGC", "switch fluorescence ratio": 1}
{"sequence": "GTTGGTGTTC", "switch fluorescence ratio": 0.978}
{"sequence": "GTTGTAAGGA", "switch fluorescence ratio": 1.01}
{"sequence": "GTTGTACAAT", "switch fluorescence ratio": 0.98}
{"sequence": "GTTGTACATT", "switch fluorescence ratio": 0.955}
{"sequence": "GTTGTCACGG", "switch fluorescence ratio": 0.99}
{"sequence": "GTTGTGATGC", "switch fluorescence ratio": 1.12}
{"sequence": "GTTGTGGGC", "switch fluorescence ratio": 0.964}
{"sequence": "GTTGTGTAAT", "switch fluorescence ratio": 0.988}
{"sequence": "GTTGTTATCC", "switch fluorescence ratio": 0.994}
{"sequence": "GTTGTTCATA", "switch fluorescence ratio": 1.02}
{"sequence": "GTTGTTGAAA", "switch fluorescence ratio": 0.975}
{"sequence": "GTTGTTGTGT", "switch fluorescence ratio": 1}
{"sequence": "GTTTAACCG", "switch fluorescence ratio": 0.983}
{"sequence": "GTTTAAGAAT", "switch fluorescence ratio": 0.968}
{"sequence": "GTTTAATTCG", "switch fluorescence ratio": 1.04}
{"sequence": "GTTTACATAC", "switch fluorescence ratio": 1.23}
{"sequence": "GTTTACCATT", "switch fluorescence ratio": 0.987}
